# According to ChEMBL document CHEMBL1201862, “PubChem BioAssay data set” (2004):
# System: NCI-H322M
# Assay: NCI anticancer screen, dose series, 48 h
row,SMILES,GI50
1,NC(Cc1cc(Br)c(O)c(Br)c1)C(=O)O (stereo not drawn),inactive: > 100 µM
2,Cc1nc(-n2nc(-c3ccccc3)cc2-c2ccccc2)sc1C(=O)/C=C/c1cccc([N+](=O)[O-])c1,inactive: 21.6 µM
3,Nc1nc2c(C(=O)NCc3cccs3)nnn2c2cccc(Cl)c12,inactive: 99.5 µM
4,CN(C)c1ccc(/C=C/c2cc[n+](C)c3ccccc23)cc1,inactive: 3.96 µM
5,NC(=S)SCCC(=O)O,inactive: > 100 µM
6,CCC1(CC)C(=O)N(C(=O)c2ccc(Cl)cc2)N(C(=O)c2ccccc2Cl)C1=O,inactive: > 100 µM
7,CC1=C(C(=O)NNC(=O)c2ccccc2O)CC(C(=O)NNC(=O)c2ccccc2O)=C(C)N1,inactive: 6.35 µM
8,COc1c(Br)cc2ccccc2c1-c1c(OC)c(Br)cc2ccccc12,inactive: > 100 µM
9,COC(OC)c1cc2c(cc1C(=O)[C@@]13CCC[C@@H]1NC(=O)O3)OCO2,inactive: > 100 µM
10,Nc1ccn(C2OC(COP(=O)(O)Oc3ccccc3)C(O)C2O)c(=O)n1 (stereo not drawn),inactive: > 100 µM
11,COc1ccc(N[C@H](C[S+]([O-])c2ccc(C)cc2)c2ccc(F)cc2)cc1 (stereo partly drawn),inactive: > 100 µM
12,CCOC(=O)Cc1nc2ccc3c(c2nc1O)C(=O)c1ccccc1C3=O,inactive: 33.1 µM
13,Cc1cn(C2CC(O)C(CO)C2C)c(=O)[nH]c1=O (stereo not drawn),inactive: > 100 µM
14,NC1=NC2(COC(c3ccccc3)(c3ccccc3)c3ccccc3)OC(COC(c3ccccc3)(c3ccccc3)c3ccccc3)C(O)C2O1 (stereo not drawn),inactive: > 100 µM
15,COC(=O)N1C[C@@]2(C=CC3(CC2)OCCO3)c2ccccc21,inactive: > 100 µM
16,CN[C@@H](C)[C@@H](N)c1ccccc1,inactive: > 100 µM
17,CC12CC(=O)NN=C1c1ccccc1C2 (stereo not drawn),inactive: > 100 µM
18,Cc1ccc(/N=C2N=C(Cl)/C(=C\c3ccco3)N\2)cc1,inactive: > 100 µM
19,Clc1cccc(C2SCc3nc4ccccc4n32)c1Cl (stereo not drawn),inactive: 22.1 µM
20,CC(=O)/C=C(/C=N/O)c1ccccc1,inactive: > 100 µM
21,O=CC1=CCCN(CCc2c[nH]c3ccccc23)C1,inactive: 52.4 µM
22,CC1(C)CSCC(C)(C)C(=N/N)/C1=N\N,inactive: > 100 µM
23,COc1c2cc([N+](=O)[O-])cc1CNC(=O)CN1CCOCCOCCN(CCOCCOCC1)CC(=O)NC2,inactive: > 100 µM
24,COC(=O)C(=O)C(/C(=N/N)C(=O)Nc1ccccc1C(N)=O)c1nc2ccc([N+](=O)[O-])cc2nc1O (stereo not drawn),inactive: > 100 µM

row,SMILES,GI50
1,COc1ccc(N2C(N)=C(C#N)C(C#N)(C#N)C2c2cccc([N+](=O)[O-])c2)cc1 (stereo not drawn),inactive: 18.5 µM
2,COC1=CC(=O)C2C(C1=O)[C@@H]1c3ccccc3OC(C)(C)[C@H]21 (stereo partly drawn),inactive: > 100 µM
3,O=c1cc(CO)n(CCc2c[nH]c3ccccc23)cc1O,inactive: 27.9 µM
4,COc1cccc(/N=C/c2cc(OC)c(OC)c(OC)c2)c1,inactive: > 100 µM
5,CC(=O)O[C@@H](c1nccn1Cc1ccccc1)[C@H]1OC(C)(C)O[C@@H]1[C@H]1COC(C)(C)O1,inactive: > 100 µM
6,CC(=O)C1(C)CC(C#N)(C#N)C(C#N)=C1N (stereo not drawn),inactive: > 100 µM
7,CN(C)c1ccc(C2=C([O-])c3cc(-[n+]4ccccc4)ccc3C2=O)cc1,inactive: > 100 µM
8,O=C(O[C@H](/C=C/c1ccccc1)P1(=O)N(Cc2ccccc2)[C@H]2CCCC[C@@H]2N1Cc1ccccc1)c1ccccc1,inactive: 6.28 µM
9,NC(=O)CCC(NC(=O)Cc1ccccc1)C(=O)O.NC(CCC(=O)NC(=O)Cc1ccccc1)C(=O)O (stereo not drawn),inactive: > 8130 µM
10,N/C(=N\c1ccc(Cl)cc1)NS(=O)(=O)c1ccc(S(=O)(=O)c2ccccc2)s1,inactive: 20.1 µM
11,Cc1nc2cc(N)c(F)cc2[nH]1,inactive: > 100 µM
12,Cc1cn([C@@H]2C[C@@H]2CO)c(=O)[nH]c1=O,inactive: > 100 µM
13,CCCCCCCSCC1C(=O)C23C(O)C1CCC2C12COC3(O)C(O)C1C(C)(C)CCC2O (stereo not drawn),inactive: 19.1 µM
14,O=C1c2ccccc2NC(=O)C2C1C(c1ccccc1)CC2(O)c1ccccc1 (stereo not drawn),inactive: > 100 µM
15,CC(C)=CCC/C(C)=C/CC/C(C)=C/C(O)c1ccccc1 (stereo not drawn),inactive: 20.4 µM
16,O=C(Nc1ccc(C(F)(F)F)cc1[N+](=O)[O-])C(=O)Nn1c(S)nc2ccccc2c1=O,inactive: > 100 µM
17,CCOC(=O)C(=O)Nc1c(C)cccc1CC,inactive: > 100 µM
18,CC1=CC2=C(C(N)=O)C(=O)OC2(C)C(c2ccccc2)C1 (stereo not drawn),inactive: > 100 µM
19,O=C(Nc1ccc(Cl)c(Cl)c1)C1C(=O)N(c2ccc(Cl)c(Cl)c2)C(=O)/C1=N\O (stereo not drawn),inactive: > 100 µM
20,CN1Cc2cc(O)c(O)cc2C(O)C1 (stereo not drawn),inactive: > 100 µM
21,CCCCCCCCCCCCC/C=C/[C@@H](O)[C@H](COC1OC(CO)C(OC2OC(CO)C(O)C(OC3(C(=O)O)CC(O)C(NC(C)=O)C(C(O)C(O)CO)O3)C2O)C(O)C1O)N=[N+]=[N-] (stereo partly drawn),inactive: 38.5 µM
22,COc1ccccc1N1C(=O)CSC1c1cc(OC)c(OC)c(OC)c1 (stereo not drawn),inactive: > 41.6 µM
23,O=C1C(CN2CCCCC2)CCCC1CN1CCCCC1 (stereo not drawn),inactive: > 100 µM
24,O=C1c2cccnc2S(=O)(=O)N1c1ccc(Br)cc1,inactive: > 100 µM

row,SMILES,GI50
1,CC(=O)[C@@H]1[C@@H](OC(=O)CCC(C)COC2OC(CO)C(O)C(O)C2O)C[C@H]2[C@@H]3CC=C4C[C@@H](OC5OC(CO)C(OC6OC(C)C(O)C(O)C6O)C(O)C5OC5OC(C)C(O)C(O)C5O)CC[C@]4(C)[C@H]3CC[C@]12C (stereo partly drawn),inactive: > 100 µM
2,COC1(OC)C=CC(=O)C=C1,inactive: 16.4 µM
3,CCc1cc2c(c3c1CCCC3=O)CC1(Cc3ccc(C(=O)OC)cc3C1)C2 (stereo not drawn),inactive: 73.1 µM
4,COC(=O)C1(Cc2ccccc2)Cc2ccccc2C1,inactive: 48.5 µM
5,NC(CNO)C(=O)O (stereo not drawn),inactive: > 100 µM
6,Cc1ccc(S(=O)(=O)CC2CCCn3c2c(C#N)c2ccccc23)cc1 (stereo not drawn),inactive: > 100 µM
7,O=C1c2ccc3ccccc3c2CCC1N1CCCCC1 (stereo not drawn),inactive: 15.5 µM
8,CC1(C)C[C@H](O)[C@H](O)[C@]23C(=O)O[C@H](O)[C@H]2C(C=O)=CC[C@@H]13,inactive: > 100 µM
9,CC1=NN(C(=O)CC(=O)Nc2cccc(C)c2)C(=O)C1/N=N/c1ccc(S(=O)(=O)CCOS(=O)(=O)O)cc1 (stereo not drawn),inactive: 11.9 µM
10,O=[N+]([O-])c1cccc(C2ON2C2CCCCC2)c1 (stereo not drawn),inactive: 34 µM
11,CSC1=Nc2ccccc2N=C(c2ccccc2)C1,inactive: > 100 µM
12,COc1ccc2c(O)c(Oc3ccc(Cl)cc3)c(=O)oc2c1,inactive: > 100 µM
13,N#Cc1ccccc1NC(=O)C(=O)C(C(=O)c1ccncc1)C1OC(=O)c2ccccc21 (stereo not drawn),inactive: > 100 µM
14,COc1cc(C(=O)C/C(CCC(=O)Nc2ccccc2[N+](=O)[O-])=N\NC(N)=O)ccc1O,inactive: > 100 µM
15,COc1ccc2cc(CNCCCN3CCN(CCCNCc4ccc5cc(OC)ccc5c4)CC3)ccc2c1,inactive: 1.75 µM
16,COC(=O)C1(Cc2cccc(C)c2)Cc2c(C)cccc2C1=O (stereo not drawn),inactive: > 100 µM
17,N[C@H](C(=O)O)[C@@H]1CC(Br)=NO1,inactive: > 100 µM
18,CC1=NN(c2nc(N)nc(CCl)n2)CC1,inactive: 49.8 µM
19,Cc1c(C(C)C)cc(OCCO)cc1C(C)C,inactive: 83.6 µM
20,CCOC(=O)CO/N=C1/C(=C2/C(=O)Nc3ccccc32)Nc2ccccc21,inactive: 2.96 µM
21,COc1cc(C2C(Cl)C(=O)N2c2ccc(Br)cc2)cc(I)c1O (stereo not drawn),inactive: 69.5 µM
22,CC(C)(C)OC(=O)NC(CSCc1ccc(C(=O)c2ccccc2)cc1)C(=O)N1CCN(CCCCN2c3ccccc3Sc3cc(N=[N+]=[N-])ccc32)CC1 (stereo not drawn),inactive: > 100 µM
23,CSC(=Nc1nnc(-c2ccc([N+](=O)[O-])cc2)s1)SC,inactive: 50.1 µM
24,O=S(=O)(O)c1c(Cl)cc(O)c2ncccc12,inactive: > 100 µM

row,SMILES,GI50
1,CCOC(=O)NC(=O)c1cn(C2OC(COC(=O)CCCCCCCCC(=O)OCC3OC(n4cc(C(=O)NC(=O)OCC)c(=O)[nH]c4=O)C(O)C3O)C(O)C2O)c(=O)[nH]c1=O (stereo not drawn),inactive: > 100 µM
2,CCOC(=O)Cn1c(=O)[nH]c(=O)c2c1ncn2Cc1ccccc1,inactive: > 100 µM
3,C/C=C/COC(=O)CO[N+](=O)[O-],inactive: > 100 µM
4,CCOC(=O)CCCn1cc(C(=O)OC)nn1,inactive: > 100 µM
5,COC1OC(OC)C2C(c3c(C)cc(C)cc3C)=NOC12 (stereo not drawn),inactive: > 100 µM
6,O=C(NCCC1CNc2ccccc21)OCc1ccccc1 (stereo not drawn),inactive: > 100 µM
7,C=CC/N=C1/N=C(CC(=O)OCC)CS1,inactive: > 100 µM
8,Cc1cccc(C(C)(C)C)c1NC(=O)C(C#N)C1=C(Cl)C(=O)c2ccccc2C1=O (stereo not drawn),inactive: 19.1 µM
9,NC1(CCCCCCCCCCC(=O)O)CNCCNCCNCCNC1,inactive: 39.6 µM
10,C/C(CC(=O)Nc1ccc(NC(=O)/C(C)=N/NS(=O)(=O)c2ccc(C)cc2)cc1)=N\NS(=O)(=O)c1ccc(C)cc1,inactive: > 100 µM
11,CC12CC(=O)Nc3ccccc3N1C(c1ccccc1)=NO2 (stereo not drawn),inactive: > 100 µM
12,O=C(Nc1ccccc1-c1nc2ccccc2[nH]c1=O)c1ccccc1,inactive: 23.5 µM
13,Cc1cccc2c(NCCCN(C)C)c3c([N+](=O)[O-])ccc(C)c3nc12,active: 0.256 µM
14,CC(C)(C)[Si](C)(C)OCC#C[C@@]1(O)CCCCC1CC(Sc1ccccc1)Sc1ccccc1 (stereo partly drawn),inactive: 17.6 µM
15,N#C/C(=C/c1cccc(Oc2ccccc2)c1)c1ccccc1,inactive: > 100 µM
16,CCCCCCCCOP(=O)(O)OP(=O)(O)OCC1OC(n2ccc(N)nc2=O)C(O)C1O (stereo not drawn),inactive: > 100 µM
17,CNC(=O)c1nn[nH]c1O,inactive: > 100 µM
18,COC1=C2CC(C)CC(OC)[C@@H](OC(=O)CCN)[C@H](C)/C=C(\C)C(OC(N)=O)C(OC)/C=C\C=C(/C)C(=O)NC(=CC1=O)C2=O (stereo partly drawn),inactive: 16.6 µM
19,Oc1cccc2ccc(SSc3ccc4cccc(O)c4n3)nc12,inactive: 56.4 µM
20,CN(C)C(=O)Oc1c(Br)cc(Br)cc1C(=O)OCc1ccccc1,inactive: 35.8 µM
21,O=C1Nc2c(Cl)cc(Cl)cc2C1=O,inactive: > 100 µM

#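 The compound was tested at five concentrations on cells cultured in 96-well plates, with a 48-hour exposure period. Here, GI50 denotes the concentration required for 50% inhibition of growth.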 The source made the active and inactive calls. Rule as the data show it: active = GI50 up to about 1.1 µM and inactive = higher.
